Laboratory results from the CheMixHub viscosity set.
Values joined by “and” are separate entries in the source; they are usually repeats but may differ in a detail not shown here. Identical values can stand only once. ± gives the uncertainty stated by the source. This continues a long series; more values of the same kind are listed elsewhere.

Legend:
[1] = xn = mol fraction of the nth substance listed; conditions: 101.33 kPa

CN[C@@H]1[C@H](O[C@H]2[C@H](O[C@H]3[C@H](O)[C@@H](O)[C@H](NC(=N)N)[C@@H](O)[C@@H]3NC(=N)N)O[C@@H](C)[C@]2(O)C=O)O[C@@H](CO)[C@H](O)[C@H]1O.CN[C@@H]1[C@H](O[C@H]2[C@H](O[C@H]3[C@H](O)[C@@H](O)[C@H](NC(=N)N)[C@@H](O)[C@@H]3NC(=N)N)O[C@@H](C)[C@]2(O)C=O)O[C@@H](CO)[C@H](O)[C@H]1O.O=S(=O)(O)O.O=S(=O)(O)O.O=S(=O)(O)O + O
viscosity ([1]; 298.15 K, x1 = 5e-07): 0.8956 ± 0.042 mPa·s
viscosity ([1]; 308.15 K, x1 = 5e-07): 0.7227 ± 0.041 mPa·s
viscosity ([1]; 308.15 K, x1 = 7e-07): 0.7234 ± 0.041 mPa·s
viscosity ([1]; 308.15 K, x1 = 9e-07): 0.7241 ± 0.041 mPa·s
viscosity ([1]; 308.15 K, x1 = 1e-06): 0.7249 ± 0.041 mPa·s and 0.7256 ± 0.041 mPa·s and 0.7264 ± 0.041 mPa·s
viscosity ([1]; 308.15 K, x1 = 1.8e-06): 0.7294 ± 0.041 mPa·s
viscosity ([1]; 308.15 K, x1 = 2e-06): 0.7271 ± 0.041 mPa·s and 0.7302 ± 0.041 mPa·s
viscosity ([1]; 308.15 K, x1 = 2.2e-06): 0.7308 ± 0.041 mPa·s
viscosity ([1]; 313.15 K, x1 = 5e-07): 0.6555 ± 0.041 mPa·s
viscosity ([1]; 313.15 K, x1 = 7e-07): 0.656 ± 0.041 mPa·s
viscosity ([1]; 313.15 K, x1 = 9e-07): 0.6567 ± 0.041 mPa·s
viscosity ([1]; 313.15 K, x1 = 1e-06): 0.6574 ± 0.041 mPa·s and 0.6581 ± 0.041 mPa·s and 0.6588 ± 0.041 mPa·s
viscosity ([1]; 313.15 K, x1 = 1.8e-06): 0.6602 ± 0.041 mPa·s
viscosity ([1]; 313.15 K, x1 = 2e-06): 0.6595 ± 0.041 mPa·s and 0.6626 ± 0.041 mPa·s
viscosity ([1]; 313.15 K, x1 = 2.2e-06): 0.6632 ± 0.041 mPa·s

O
viscosity (293.15 K, 101 kPa): 1.026 ± 0.01 mPa·s
viscosity (294.55 K, 101.33 kPa): 0.968 ± 0.026 mPa·s
viscosity (295.1 K, 101.32 kPa): 0.9532 ± 0.0059 mPa·s
viscosity (298.15 K, 101 kPa): 0.997 ± 0.026 mPa·s and 0.8756 ± 0.0075 mPa·s
viscosity (298.15 K, 101.33 kPa): 0.877 ± 0.057 mPa·s and 0.8893 ± 0.089 mPa·s
viscosity (300.12 K, 101.33 kPa): 0.853 ± 0.007 mPa·s
viscosity (300.2 K, 101 kPa): 0.91 ± 0.006 mPa·s
viscosity (301.15 K, 101 kPa): 0.8325 ± 0.0074 mPa·s
viscosity (301.15 K, 101.32 kPa): 0.8206 ± 0.0052 mPa·s
viscosity (302.15 K, 101 kPa): 0.8143 ± 0.0052 mPa·s and 0.8148 ± 0.0052 mPa·s
viscosity (302.35 K, 101 kPa): 0.807 ± 0.018 mPa·s
viscosity (303.15 K, 100 kPa): 0.86 ± 0.018 mPa·s and 0.856 ± 0.018 mPa·s and 0.79 ± 0.01 mPa·s
viscosity (303.15 K, 101.3 kPa): 0.803 ± 0.04 mPa·s and 0.754 ± 0.019 mPa·s
viscosity (303.15 K, 101.33 kPa): 0.8075 ± 0.089 mPa·s and 0.8121 ± 0.0081 mPa·s and 0.794 ± 0.013 mPa·s
viscosity (304.15 K, 101.32 kPa): 0.7594 ± 0.0049 mPa·s
viscosity (304.15 K, 101.33 kPa): 0.778 ± 0.021 mPa·s
viscosity (306.15 K, 101 kPa): 0.7491 ± 0.0048 mPa·s
viscosity (306.99 K, 101.33 kPa): 0.73 ± 0.006 mPa·s
viscosity (307.15 K, 101.32 kPa): 0.7095 ± 0.0046 mPa·s
viscosity (308.15 K, 101 kPa): 0.7167 ± 0.032 mPa·s and 0.729 ± 0.019 mPa·s
viscosity (308.15 K, 101.3 kPa): 0.734 ± 0.04 mPa·s and 0.734 ± 0.074 mPa·s
viscosity (308.15 K, 101.33 kPa): 0.716 ± 0.047 mPa·s and 0.6922 ± 0.072 mPa·s and 0.717 ± 0.019 mPa·s
viscosity (309.15 K, 101 kPa): 0.7045 ± 0.0046 mPa·s
viscosity (310.15 K, 101 kPa): 0.6947 ± 0.0061 mPa·s
viscosity (310.15 K, 101.32 kPa): 0.662 ± 0.0044 mPa·s
viscosity (311.15 K, 101 kPa): 0.6784 ± 0.0045 mPa·s
viscosity (313.15 K, 100 kPa): 0.6882 ± 0.14 mPa·s and 0.657 ± 0.014 mPa·s and 0.658 ± 0.014 mPa·s
viscosity (313.15 K, 101.3 kPa): 0.619 ± 0.04 mPa·s and 0.619 ± 0.062 mPa·s and 0.624 ± 0.017 mPa·s
viscosity (313.15 K, 101.32 kPa): 0.6237 ± 0.0042 mPa·s
viscosity (313.15 K, 101.33 kPa): 0.666 ± 0.074 mPa·s and 0.6382 ± 0.068 mPa·s
viscosity (313.85 K, 101.33 kPa): 0.657 ± 0.018 mPa·s
viscosity (315.15 K, 101 kPa): 0.6279 ± 0.0061 mPa·s
viscosity (318.15 K, 100 kPa): 0.591 ± 0.04 mPa·s and 0.6 ± 0.01 mPa·s
viscosity (318.15 K, 101.3 kPa): 0.591 ± 0.059 mPa·s and 0.587 ± 0.02 mPa·s
viscosity (318.15 K, 101.33 kPa): 0.5862 ± 0.063 mPa·s and 0.594 ± 0.016 mPa·s
viscosity (323.05 K, 101.33 kPa): 0.5529 ± 0.002 mPa·s
viscosity (323.15 K, 100 kPa): 0.5831 ± 0.12 mPa·s and 0.539 ± 0.012 mPa·s
viscosity (323.15 K, 101 kPa): 0.571 ± 0.039 mPa·s and 0.556 ± 0.03 mPa·s
viscosity (323.15 K, 101.3 kPa): 0.553 ± 0.014 mPa·s and 0.556 ± 0.02 mPa·s
viscosity (323.15 K, 101.33 kPa): 0.558 ± 0.036 mPa·s

CC[n+]1ccn(C)c1.N#C[N-]C#N
viscosity (293.15 K, 101 kPa): 17.41 ± 0.73 mPa·s
viscosity (303.15 K, 101 kPa): 12.96 ± 0.54 mPa·s
viscosity (308.15 K, 100 kPa): 11.05 ± 0.67 mPa·s
viscosity (313.15 K, 100 kPa): 9.76 ± 0.59 mPa·s
viscosity (313.15 K, 101 kPa): 10.05 ± 0.42 mPa·s
viscosity (318.15 K, 100 kPa): 8.69 ± 0.53 mPa·s
viscosity (323.15 K, 101 kPa): 8.277 ± 0.35 mPa·s
